Measurements taken from paper PMC13083723 (Patterns, 2026).
The whole screen tested about 5,400 compounds, of which about 190 (3.5%) showed an effect of 50% or more. The list shows a part of the results.

What follows are molecules tested on Vero-E6 (assay: primary screen, phospholipidosis by LipidTOX staining; higher = more effect of the substance). Details: 10 µM.
In short: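 Drug-induced phospholipidosis detected with HCS LipidTOX Red reagent in Vero-E6 cells. Compounds tested at 10 μM, with amiodarone (10 μM) as positive control and DMSO (0.1 v/v %) as vehicle.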

SMILES	result_ITMP
O=C(O)CNC(=O)c1c(O)c2ccccc2n(Cc2ccccc2)c1=O	3.5%
CNS(=O)(=O)CCc1ccc2[nH]cc(C3CCN(C)CC3)c2c1	-5.61%
CCCCNC(=O)[C@@H]1Cc2ccccc2N1C(=O)[C@@H](N)CC	-1.01%
O=C(Nc1nc2cccc(-c3ccc(CN4CCS(=O)(=O)CC4)cc3)n2n1)C1CC1	0.26%
COc1ccc2ccc(=O)oc2c1CC=C(C)C	-1.25%
N=C(N)NS(=O)(=O)c1ccc(N)cc1	-0.19%
Cc1cc(CN2CCN(c3c(Br)cnc4[nH]c(-c5ccc(N6CCN(C)CC6)cc5)nc34)CC2)no1	-0.42%
CSCC1CN(/N=C/c2ccc([N+](=O)[O-])o2)C(=O)O1 (centres unmarked)	0.39%
COc1cc2nc(N(C)CCCNC(=O)C3CCCO3)nc(N)c2cc1OC (centres unmarked)	1.62%
O=C(Nc1cc(C(F)(F)F)cc(C(F)(F)F)c1)c1cnc(Cl)nc1C(F)(F)F	-2.22%
CCN(CC)c1ccc(C(=C2C=CC(=[N+](CC)CC)C=C2)c2ccccc2)cc1	-12.8%
CNCCn1c(=O)c2cc(OC)c(OC)cc2c2cnc3cc4c(cc3c21)OCO4	0.03%
Oc1ccc2ccccc2c1SSc1c(O)ccc2ccccc12	9.07%
Clc1ccc(Cn2c(CN3CCCC3)nc3ccccc32)cc1	8.68%
CCCCc1nc2cc(/C=C/C(=O)NO)ccc2n1CCN(CC)CC	-5%
CC(C)OC(=O)Nc1cccc(Cl)c1	-2.26%
O=C(O)/C=C/c1ccc(O)c(O)c1	1.17%
CC1(C)CC(=O)c2c(C(F)(F)F)nn(-c3ccc(C(N)=O)c(N[C@H]4CC[C@H](O)CC4)c3)c2C1	-1.47%
CC(C)c1ccc2c(c1)CC[C@H]1[C@](C)(CN)CCC[C@]21C	80.5%
C[N+](C)(C)CCCCCCCCCC[N+](C)(C)C	2.31%
c1ccc2nc(N3CCNCC3)ccc2c1	9.23%
CC(=O)O[C@]1(C(C)=O)CC[C@H]2[C@@H]3CCC4=CC(=O)CCC4=C3[C@@H](c3ccc(N(C)C)cc3)C[C@@]21C	-0.56%
COc1cc(C(=O)N(CCC2CCCN2C)C/C(C)=C/c2ccccc2F)cc(OC)c1OC (centres unmarked)	37.9%

SMILES	result_ITMP
CS(=O)(=O)c1ccc([C@@H](CC2CCCC2)C(=O)Nc2nccs2)cc1	-2.12%
N#CSc1cc(SC#N)c(N)nc1N	-0.78%
CCc1cc(C(C)=O)c(O)cc1OCCCCCC(C)(C)c1nnn[nH]1	-0.08%
Cc1cc(O)c(C(=O)N[C@@H](C(=O)N[C@@H]2C(=O)N3C(C(=O)[O-])=C(CSc4nnnn4C)CS[C@H]23)c2ccc(O)cc2)cn1	-6.76%
CN1C[C@@H]2C[C@H]1CN2c1cc2c(cc1F)c(=O)c(C(=O)O)cn2C1CC1	-0.66%
CC#CC(=O)N1CCC[C@H]1c1nc(-c2ccc(C(=O)Nc3ccccn3)cc2)c2c(N)nccn12	-1.7%
CC(=O)Nc1nc2c(Oc3cc(-c4ccc(C(F)(F)F)cc4)ncn3)cccc2s1	-4.53%
CC(C)c1ccc(-c2cc(=O)c3ccccc3o2)cc1	-1.84%
CC(C)n1nc(-c2ccc3oc(N)nc3c2)c2c(N)ncnc21	1.87%
CCCCCCCCCCCCCCCC(=O)OC[C@@H](NC(=O)C(Cl)Cl)[C@H](O)c1ccc([N+](=O)[O-])cc1	-1.35%
N=C(N)Nc1ccc(C(=O)Oc2ccc3cc(C(=N)N)ccc3c2)cc1	2.02%
NC(=O)c1nc(F)cnc1O	-3.41%
Nc1ncnc2c1ncn2C1O[C@H](COP(=O)(O)OP(=O)([O-])OP(=O)([O-])O)[C@@H](O)[C@H]1O (some centres unmarked)	6.44%
COc1cc(C[C@@H](CO[C@@H]2O[C@H](CO)[C@@H](O)[C@H](O)[C@H]2O)[C@H](CO[C@@H]2O[C@H](CO)[C@@H](O)[C@H](O)[C@H]2O)Cc2ccc(O)c(OC)c2)ccc1O	4.43%
C[C@H](NC(=O)CCc1nc2ccccc2c(=O)[nH]1)c1ccccc1 [R4A_0003503_001 / SPE_A63444178]	0.66%
Cc1nnsc1C(=O)Nc1ccc(-n2nc(C(F)(F)F)cc2C(F)(F)F)cc1	-7.75%
Oc1c(I)cc(I)cc1I	-4.04%
CCCCCCCCCCCCCCCC[n+]1ccn(Cc2ccccc2)c1C	-1.61%
C=CC(=O)Nc1cccc(Nc2nc(Nc3ccc(Oc4ccnc(C(=O)NC)c4)cc3)ncc2F)c1	0.98%
CCCSc1nc(N[C@@H]2C[C@H]2c2ccc(F)c(F)c2)c2nnn([C@@H]3C[C@H](OCCO)[C@@H](O)[C@H]3O)c2n1	-1.6%
OC[C@H]1O[C@H](O[C@H]2[C@H](O)[C@@H](O)[C@H](O)O[C@@H]2CO)[C@H](O)[C@@H](O)[C@@H]1O	-0.88%
CN1C[C@H](C(=O)N[C@]2(C)O[C@@]3(O)[C@@H]4CCCN4C(=O)[C@H](Cc4ccccc4)N3C2=O)C[C@@H]2c3cccc4[nH]cc(c34)C[C@H]21	-1.82%
C=C1C[C@@]2(O)O[C@@]3(C[C@H]2C(C)C)[C@@H](C)CC[C@@H]13	-4.82%

SMILES	result_ITMP
O=C(O)COCCN1CCN(C(c2ccccc2)c2ccc(Cl)cc2)CC1 (centres unmarked)	-4.08%
N[C@@H]1CONC1=O	-0.5%
O=C1NCN(c2ccccc2)C12CCN(CC1COc3ccccc3O1)CC2 (centres unmarked)	-0.96%
N[C@H]1C[C@@H]1c1ccc(-c2cccc(O)c2)cc1	37.1%
CCCc1c2oc(C(=O)O)cc(=O)c2cc2c(=O)cc(C(=O)O)n(CC)c12	-1.04%
COc1cc2c(cc1OC)[C@@H](Cc1cc(OC)c(OC)c(OC)c1)[N+](C)(CCCOC(=O)CC/C=C/CCC(=O)OCCC[N+]1(C)CCc3cc(OC)c(OC)cc3[C@H]1Cc1cc(OC)c(OC)c(OC)c1)CC2 (some centres unmarked)	-2.07%
O=C1c2ccccc2C(=O)C1c1ccc(Cl)cc1	1.02%
CN(C)CC(O)Cn1c2ccc(Br)cc2c2cc(Br)ccc21 (centres unmarked)	28.6%
O=C(O)c1ccccn1	-2.21%
CC(=O)O[C@]1(C(C)=O)CC[C@H]2[C@@H]3C=C(Cl)C4=CC(=O)[C@@H]5C[C@@H]5[C@]4(C)[C@H]3CC[C@@]21C	3.68%
O=C(O)C1CCCN(CCC=C(c2ccccc2)c2ccccc2)C1 (centres unmarked)	-1.78%
CC(C)c1cc(-c2n[nH]c(=O)n2-c2ccc3c(ccn3C)c2)c(O)cc1O	-7.81%
N=C(N)c1ccc(/C=C/c2ccc(C(=N)N)cc2O)cc1	-2.09%
COc1ccc(-c2ccc3ncc4c(c3c2)n(-c2ccc(N3CCNCC3)c(C(F)(F)F)c2)c(=O)n4C)cn1	5.95%
Clc1ccc(CO/N=C(\Cn2ccnc2)c2ccc(Cl)cc2Cl)c(Cl)c1	0.41%
Cc1ncc(C)n2nc([C@@H]3C[C@H]3c3nc4c5cccnc5ccn4c3C)nc12	-2.79%
COc1cccc(CCc2ccccc2OCC[C@@H]2C[C@@H](O)CN2C)c1	90.4%
O=C(Nc1ccc(C(O)(C(F)(F)F)C(F)(F)F)cc1)c1ccc(C(F)(F)F)cc1	-1.38%
CC1CC(OC(=O)C(O)c2ccccc2)CC(C)(C)C1 (centres unmarked)	2.57%
O=C(N/N=C/c1ccccc1O)c1ccccc1O	-3.15%
COc1ccc(C(Cl)=C(c2ccc(OC)cc2)c2ccc(OC)cc2)cc1	-10%
O=c1[nH]c2cc(C(F)(F)F)c(N3CCOCC3)cc2n(CP(=O)(O)O)c1=O	-7.52%
O=C(O)c1cccnc1Nc1cccc(C(F)(F)F)c1	-3.76%

SMILES	result_ITMP
Cc1cn([C@H]2O[C@@H](CO)[C@H](O)[C@H]2F)c(=O)[nH]c1=O	5.41%
NC1(C(=O)N[C@@H](CCO)c2ccc(Cl)cc2)CCN(c2ncnc3[nH]ccc23)CC1	4.08%
CC(CCc1ccccc1)NCC(O)c1ccc(O)c(C(N)=O)c1 (centres unmarked)	-2.33%
Nc1ncnc2c1nc(Br)n2[C@@H]1O[C@@H]2COP(=O)([O-])O[C@H]2[C@H]1O	15.8%
CCOC(=O)[C@H](CCc1ccccc1)N[C@@H](C)C(=O)N1Cc2ccccc2C[C@H]1C(=O)O	6.02%
Cn1cc(-c2ccc3ncc(Cc4ccc5ncccc5c4)n3n2)cn1	3.96%
CN1C(C)(C)CCCC1(C)C	-4.52%
Cc1cc(NC(=O)Nc2ccc(N(C)C)cc2)c2cc(F)cc(F)c2n1	3.8%
OC[C@H]1O[C@@H](n2cnc3c2NC=NC[C@H]3O)C[C@@H]1O	-5.63%
CN(C)/N=N/c1[nH]cnc1C(N)=O	0.56%
CN1C[C@@H](NS(=O)(=O)N(C)C)C[C@@H]2c3cccc4c3c(cn4C)C[C@H]21	0.99%
C[N+](C)(C)CCCCCC[N+](C)(C)C	-5.53%
O=c1ccc2ccc(OCCCCN3CCN(c4cccc5sccc45)CC3)cc2[nH]1	1.96%
CC(C)Cc1sc(N)nc1-c1ccc(P(=O)(O)O)o1	-1.22%
c1cc(Cc2cnc[nH]2)ccn1	-3.63%
CCCCCCCCc1ccc(-c2ccc(C(=O)O)cc2)cc1	-2.19%
CC(CCC(=O)O)[C@H]1CCC2C3C(=O)C[C@@H]4CC(=O)CC[C@]4(C)C3CC(=O)[C@@]21C (some centres unmarked)	2.15%
CC(C)(O)C(Cl)(Cl)Cl	-3.96%
COCCOc1cnc2ccn([C@H](C)c3nnc4c(F)cc(-c5cnn(C)c5)cn34)c(=O)c2c1	0.05%
Cc1cc2c(cc1S(N)(=O)=O)S(=O)(=O)CCC2	1.83%
